Assay results published in the supplement of paper PMC3334620.
Over roughly 33,000 sequences, “E-score (-0.5 to 0.5)” has its median near -0.036; the highest 2% begin near 0.37. The list shows a part of the results.

molecular target: T1, Yer064c (UniProt P40041); assay: PBM E-score (8-mer binding enrichment) (E-score (-0.5 to 0.5)); higher = stronger / more preferred TF binding; most listed sequences are background and not binding sites; details: protein concentration: 200 nM; construct: GST-full length
T1 sequence: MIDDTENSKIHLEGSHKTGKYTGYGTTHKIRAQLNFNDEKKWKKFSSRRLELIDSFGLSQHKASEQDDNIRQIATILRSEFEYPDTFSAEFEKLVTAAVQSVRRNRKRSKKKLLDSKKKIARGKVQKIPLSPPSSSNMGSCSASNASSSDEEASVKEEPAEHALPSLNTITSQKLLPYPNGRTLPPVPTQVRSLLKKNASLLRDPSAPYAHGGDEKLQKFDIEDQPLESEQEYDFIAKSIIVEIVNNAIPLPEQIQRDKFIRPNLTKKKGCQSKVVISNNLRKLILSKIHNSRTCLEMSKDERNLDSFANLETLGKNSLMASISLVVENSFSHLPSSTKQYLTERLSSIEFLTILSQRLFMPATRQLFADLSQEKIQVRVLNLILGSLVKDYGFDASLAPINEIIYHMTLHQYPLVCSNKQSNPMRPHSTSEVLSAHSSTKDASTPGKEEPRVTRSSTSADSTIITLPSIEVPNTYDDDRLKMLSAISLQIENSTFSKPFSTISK
In short: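 E-scores (a modified Wilcoxon-Mann-Whitney statistic) were assigned by the Universal PBM Analysis Suite to every ungapped eight-base word pooled with its reverse complement. The input came from universal all-10-mer Agilent arrays made double-stranded by primer extension and probed with GST-tagged yeast transcription factors at about 100-200 nM. Fluorescent anti-GST detected bound protein, and masliner normalised the scans.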

Row | Sequence | PBM E-score
1 | ACCACAGG | -0.0474
2 | ATCCCGCC | -0.272
3 | ATCTCACG | -0.0745
4 | ATCCTTAG | -0.107
5 | GGCTATAA | 0.0182
6 | AGATAGAT | -0.159
7 | GCAACAGA | -0.0573
8 | AACCTCAT | -0.0612
9 | GTATACGA | 0.00578
10 | AATGAACA | 0.129
11 | TTAAACAA | 0.128
12 | CATCCGGG | -0.241
13 | CAAAAGGC | -0.0635
14 | GGCACGCC | -0.33
15 | CATTTTCC | -0.112
16 | CATTGATC | 0.061
17 | ATGTATAC | -0.0163
18 | GACGAGCC | 0.0215
19 | CGGGCCTA | -0.145
20 | GAACTTTA | -0.16
21 | CGGCCACA | -0.272
22 | ACGACCCA | -0.0194
23 | GCATGCTA | -0.292
24 | ACATCTCT | 0.098
25 | CTAGCTTC | -0.0301

Row | Sequence | PBM E-score
26 | AACATTTG | -0.159
27 | GGCAAAAA | -0.0878
28 | AAAACGCG | -0.0879
29 | AGTCGTCA | 0.389
30 | ACCACCTC | -0.175
31 | TGGCCAAA | -0.187
32 | GGAGGGTA | -0.133
33 | CCCTACAA | -0.0271
34 | CGCCAGTA | -0.0231
35 | GATTCGCC | 0.139
36 | CAGTTTCC | 0.0161
37 | AAGGTCCG | -0.313
38 | GATCGTAC | -0.212
39 | ACCGGAGC | -0.223
40 | AAGCAGGT | -0.246
41 | CGGCATCC | -0.188
42 | CAACCTCG | -0.15
43 | CGAATACG | -0.0137
44 | TAGAGGGA | -0.0956
45 | CGTATACC | -0.0832
46 | CTGTAAAC | -0.228
47 | ACGCCACA | -0.269
48 | CTTCCCTC | -0.101
49 | ACCTCCCT | -0.107
50 | AGTAAGTC | 0.354

Row | Sequence | PBM E-score
51 | AATCCCGC | -0.00446
52 | CCAATCTA | -0.0221
53 | CTATCTAC | -0.029
54 | GCCTGACA | -0.338
55 | TGGAGAAA | -0.129
56 | TCTGTGCA | 0.0016
57 | TACCAACA | 0.0555
58 | GGTCAACC | -0.0162
59 | CCTCAGCC | -0.144
60 | AGCTTTAA | -0.0271
61 | GAATCGTA | 0.261
62 | GAGAGCAA | -0.221
63 | GCTAAACC | -0.0482
64 | AGATTACA | 0.174
65 | ACTAAGAC | 0.335
66 | GTTCGCGA | 0.0471
67 | CTGTCCCA | -0.101
68 | CTCGTCAA | 0.129
69 | GAGCCGCC | -0.205
70 | AGTTATAC | -0.0065
71 | ACCGAGAC | 0.0452
72 | GCATGTCA | -0.0942
73 | GCTTCAAC | -0.16
74 | CGTCGAAA | -0.101
75 | GGCCGAAC | -0.254

Row | Sequence | PBM E-score
76 | CCCTCCGG | -0.363
77 | AAATAACC | 0.0207
78 | AATTTTGG | -0.135
79 | CCAAAGAG | 0.0884
80 | TCGTATAA | 0.157
81 | GAGGTGAA | -0.0478
82 | ACGAGTAC | 0.259
83 | CAACCGTG | -0.0244
84 | CCCACATC | -0.112
85 | CACGCCCA | -0.171
86 | AAGGAATA | -0.0678
87 | CGGCGGGA | -0.213
88 | ATACGCCA | -0.173
89 | AGAGGAGG | -0.184
90 | AAGTTCGT | -0.231
91 | GAGCTGCA | -0.152
92 | AGATTAGA | 0.158
93 | CCGTCATC | -0.098
94 | ATGATTCA | 0.49
95 | ATGACCTA | 0.225
96 | CGCGCCCC | -0.271
97 | ACTAATCT | 0.273
98 | ACACGATC | -0.0228
99 | AGGCTGGA | -0.00933
100 | CATCCGCC | -0.131

Row | Sequence | PBM E-score
101 | CTTTATAC | -0.0681
102 | CAGACTCC | 0.187
103 | ACAAGTAA | -0.0252
104 | CGCCAGAC | -0.0536
105 | GAATACCC | -0.112
106 | CTGCGCTA | -0.0642
107 | GCCGGAGA | -0.0453
108 | CCATGACG | 0.0206
109 | GCCTCCAA | -0.205
110 | AGACGAGC | -0.186
111 | GCTTTTAA | -0.0605
112 | TGAAATAA | -0.00913
113 | CTAAAATC | 0.0443
114 | TACGAGAA | -0.0441
115 | CCGCATCG | -0.0628
116 | TCGCGAAA | -0.0959
117 | GTGGTACA | -0.0879
118 | AACAGGAG | -0.0797
119 | CGCGTGAC | 0.233
120 | AGATTTCC | -0.0852
121 | ACGTTCTA | -0.0941
122 | AAGGCAAA | -0.139
123 | CGACATCC | -0.29
124 | ACCGCTTG | -0.0956
125 | CAACGGGA | -0.116

Row | Sequence | PBM E-score
126 | AGTAGAAT | -0.0585
127 | GCCGACTA | 0.334
128 | CTGGTCTA | -0.15
129 | CACTGGCC | -0.0935
130 | AGAAGATA | 0.171
131 | CGTTTATA | -0.00381
132 | CCATTAAA | -0.118
133 | CTCCGCAA | -0.0345
134 | CTTCCGGC | -0.221
135 | CCTCGAGG | -0.0203
136 | CGATACTA | -0.158
137 | TGATGGCA | -0.364
138 | CACTATCG | -0.137
139 | AGCTTCGG | -0.022
140 | ATGATTGC | 0.375
141 | AGGGGTGC | -0.273
142 | CATCTGAG | 0.0912
143 | ACGCAGCA | -0.206
144 | GATAAGCA | -0.286
145 | AGGCACAC | -0.235
146 | ACGTGACC | -0.137
147 | GTGAGAGA | -0.0044
148 | CACCCATA | 0.0115
149 | GATGGACA | 0.0247
150 | CAAAGACC | -0.0823

Row | Sequence | PBM E-score
151 | GAATCGGC | -0.0226
152 | CCAGGTTA | -0.00118
153 | GTTCAAAA | -0.0391
154 | ACCGGCTC | -0.221
155 | ACACCTCA | -0.12
156 | CTATGATC | 0.155
157 | ACCCTGAG | 0.0733
158 | ATAACTAG | -0.0149
159 | GACGCACA | 0.0677
160 | TCCGAAAA | -0.0172
161 | ACTCTCGG | 0.151
162 | GGATATGA | 0.135
163 | CGGAAGAG | -0.262
164 | ACCTACGG | -0.193
165 | ACAAACTC | 0.0756
166 | AAAAATAC | 0.14
167 | CTCTCGAA | 0.074
168 | GTGAACTA | 0.0767
169 | GAAGGAAC | -0.157
170 | TGCCGCCA | -0.171
171 | AAGTCGGA | 0.18
172 | AATCAGAT | 0.329
